# Reference: article PMC4336329 (PLoS ONE, 2015)
# Hit rate of the full screen: of about 310,000 compounds, about 2,200 (0.71%) showed an effect of 50% or more. The effect is printed as a negative number. The list shows a part of the results.
# Molecular target: human ether-à-go-go-related gene (hERG) potassium channel (human, UniProt Q12809)
# Assay: primary screen, population patch clamp on CHO cells stably expressing hERG
# Chain of human ether-à-go-go-related gene (hERG) potassium channel (Q12809 whole entry, looked up): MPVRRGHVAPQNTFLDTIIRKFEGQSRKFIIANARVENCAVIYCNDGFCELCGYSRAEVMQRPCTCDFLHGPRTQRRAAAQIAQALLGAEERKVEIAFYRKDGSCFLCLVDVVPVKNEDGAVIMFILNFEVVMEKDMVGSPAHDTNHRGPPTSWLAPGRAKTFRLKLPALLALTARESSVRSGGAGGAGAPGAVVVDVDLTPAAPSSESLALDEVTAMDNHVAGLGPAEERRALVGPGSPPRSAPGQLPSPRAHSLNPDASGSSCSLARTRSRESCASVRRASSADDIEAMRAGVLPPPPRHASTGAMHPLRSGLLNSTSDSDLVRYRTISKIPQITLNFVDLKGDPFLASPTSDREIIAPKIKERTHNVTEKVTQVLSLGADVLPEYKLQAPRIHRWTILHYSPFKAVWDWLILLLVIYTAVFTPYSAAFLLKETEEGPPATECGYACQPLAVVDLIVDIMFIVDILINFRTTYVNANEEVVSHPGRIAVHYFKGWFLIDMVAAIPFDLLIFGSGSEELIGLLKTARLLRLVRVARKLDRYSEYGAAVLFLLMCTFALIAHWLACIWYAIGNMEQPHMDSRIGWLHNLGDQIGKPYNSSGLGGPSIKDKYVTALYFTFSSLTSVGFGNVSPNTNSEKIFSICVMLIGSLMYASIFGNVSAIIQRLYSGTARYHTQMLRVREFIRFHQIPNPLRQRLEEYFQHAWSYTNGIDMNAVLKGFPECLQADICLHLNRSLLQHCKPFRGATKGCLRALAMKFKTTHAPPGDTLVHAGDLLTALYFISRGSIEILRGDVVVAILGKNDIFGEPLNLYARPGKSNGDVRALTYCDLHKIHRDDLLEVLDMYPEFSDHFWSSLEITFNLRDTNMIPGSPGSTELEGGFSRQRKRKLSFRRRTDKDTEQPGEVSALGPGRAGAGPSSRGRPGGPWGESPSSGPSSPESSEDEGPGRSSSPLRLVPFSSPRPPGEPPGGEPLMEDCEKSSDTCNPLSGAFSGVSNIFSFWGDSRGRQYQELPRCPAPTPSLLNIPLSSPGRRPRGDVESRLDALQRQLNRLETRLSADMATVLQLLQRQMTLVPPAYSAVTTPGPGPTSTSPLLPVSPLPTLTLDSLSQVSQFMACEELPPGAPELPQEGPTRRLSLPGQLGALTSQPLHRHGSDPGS
row,Compound,"hERG current change (%, negative = inhibition) at 1uM"
1,CNC(=O)CSc1nnc(NC(=O)C2CC(=O)N(c3ccccc3OC)C2)s1 (centres unmarked),7.27%
2,Cc1ccccc1N1CC(c2nc3ccccc3[nH]2)CC1=O (centres unmarked),9.34%
3,Cc1ccccc1NS(=O)(=O)c1cc(C(=O)N2CCc3ccccc3C2)ccc1C,22%
4,COc1cc(C2C3C(=O)N(Cc4ccccc4)C(=O)C3ON2c2ccccc2)cc(OC)c1O (centres unmarked),3.74%
5,CCc1ccc2oc(-c3cccc(N)c3)nc2c1,5.75%
6,CC(C(=O)c1ccc(Br)cc1)[n+]1cccc(NC(=O)c2ccccc2)c1 (centres unmarked),1.86%
7,CC(C)(C)c1ccc(CN2N=C(/C=C/c3ccccc3)CCC2=O)cc1,11.3%
8,C#CCOc1ccc(/C=C2/C(=O)ON=C2C)cc1OCC,17%
9,CCOc1ccc(C(=O)NCC(=O)OCC(=O)Nc2ccc(C)c(S(=O)(=O)N(C)C)c2)cc1,-6.52%
10,CC(=O)C1=C(O)C(=O)N(c2ccc(Br)cn2)C1c1cccc([N+](=O)[O-])c1 (centres unmarked),14.9%
11,Cc1ccc(-c2nc3ccccc3s2)cc1NC(=O)c1cc(-n2cnnc2)ccc1Cl,-2.5%
12,COc1ccc(NC(=O)NNC(=O)C(O)(c2ccccc2)c2ccccc2)cc1,3.47%
13,C=CCN1C(=S)N[C@@H]2CS(=O)(=O)C[C@@H]21,9.05%
14,CC(=O)c1ccc(S(=O)(=O)N2CCN(C(=O)C3CCCC3)CC2)cc1,6.86%
15,CCOC(CNC(=O)c1ccc2c(c1)ncn2-c1ccc(F)c(F)c1)OCC,3.06%
16,CC(C)=C1C2CCC1C1C(=O)N(NC(=O)COc3ccc(Cl)c(C)c3)C(=O)C21 (centres unmarked),-0.967%
17,O=C(COc1ccccc1Cl)N1CCN(c2ccc(F)cc2)CC1,-1.65%
18,Cc1ccc(-n2c(-c3ccccc3)c[n+]3c2CCc2ccccc2-3)c(C)c1.[Br-],-82.5%
19,O=C(N/N=C/c1ccccn1)c1cccc(NC(=O)c2ccccc2Cl)c1,16.8%

row,Compound,"hERG current change (%, negative = inhibition) at 1uM"
1,COc1ccc2c(c1)c(CC(=O)Nc1cccc(S(N)(=O)=O)c1)c(C)n2C(=O)c1ccc(Cl)cc1,4.6%
2,CNC(=O)COc1ccccc1C(=O)Nc1ccc2c(c1)oc1ccccc12,13.7%
3,CCn1c(-c2ccccc2SC)n[nH]c1=S,10.7%
4,CN(C(=O)C1CCCO1)c1nnc(-c2ccccn2)s1 (centres unmarked),8.44%
5,CC(C)OC(=O)CSc1ncnc2c1cnn2-c1ccccc1,14.3%
6,COc1ccccc1CC(=O)Nc1cccc(C(=O)Nc2nccs2)c1,10.9%
7,Cc1ccc(NC(=O)/C(=C/C=C/c2ccccc2)NC(=O)c2ccccc2)cc1,1.32%
8,CCNC(=O)NC(=O)C(C)N1C(=O)NC(c2ccccc2)(c2ccccc2)C1=O (centres unmarked),-2.55%
9,CSc1ncccc1C(=O)OCc1ccc([N+](=O)[O-])cc1,13.2%
10,COc1ccc(NC(=O)c2ccc(-c3ccc([N+](=O)[O-])cc3)o2)cc1OC,-12.3%
11,O=C(c1ccncc1)N1CCN(S(=O)(=O)c2ccc3ccccc3c2)CC1,6.93%
12,O=C(Nc1ccc(Cl)c(S(=O)(=O)N2CCOCC2)c1)c1ccccc1-c1ccc(C(F)(F)F)cc1,10.3%
13,Cc1ccc(C(=O)N/N=C\c2ccccn2)cn1,11.8%
14,Cc1ccc(F)c(NC(=O)/C(C#N)=C(\O)c2ccc(C(C)(C)C)cc2)c1,15%
15,O=C(O)CCNS(=O)(=O)c1ccc2c(c1)Cc1ccccc1-2,10.9%
16,CC(=O)c1cc2c(cc1NC(=O)CCCC(=O)O)OCO2,10.1%
17,COc1cc(-c2nnc(SCC(=O)NC3CCCC3)n2C)cc(OC)c1O,32.3%
18,CC(C)NS(=O)(=O)c1ccc(CCC(=O)Nc2ccc3c(c2)OCCO3)cc1,4.12%
19,CCCCCOc1ccc(C2C(C(C)=O)=C(C)Nc3ncnn32)cc1OC (centres unmarked),-13.3%

row,Compound,"hERG current change (%, negative = inhibition) at 1uM"
1,CCc1nc2sc3c(c2c(=O)n1CCO)CCC3,15.2%
2,CCC(CC)NC(=O)Nc1cccc(C)c1C,-0.365%
3,CCN1CCN(C(=O)c2cc(COc3c(C)cccc3C)on2)CC1,1.62%
4,CC(=O)c1cccc(NC(=O)N2CCCC2C(=O)NCc2ccc(C)cc2)c1 (centres unmarked),-9.66%
5,COc1ccc(CSc2nncn2N)cc1Br,1.24%
6,O=C(N/N=C/c1ccccc1OCC(=O)N1CCCC1)C(=O)Nc1ccccc1F,0.739%
7,CN(C)S(=O)(=O)c1ccc(C(=O)Nc2nnc(SCC(=O)NCC3CCCO3)s2)cc1 (centres unmarked),9.33%
8,O=C(Nc1cccnc1)Nc1ccc(Br)cc1Cl,6.6%
9,O=C(Cc1ccc(F)cc1)NC1CCSC1=O (centres unmarked),13.6%
10,CCn1c(SCC(=O)Nc2ccccc2OC)nc2ccccc2c1=O,1.38%
11,CN(C)P1(N(C)C)=NC(C(F)(F)F)=NC(C(F)(F)F)=N1,17.7%
12,CNS(=O)(=O)c1cc(-c2nnc(N3CCOCC3)c3ccccc23)ccc1C,-0.938%
13,Cc1nn(CC(=O)Nc2ccc3c(c2)nc(CN2CCCCC2)n3C)c(=O)c2ccccc12,11.1%
14,N/C(=N\OC(=O)/C=C/c1ccccc1Cl)c1ccncc1,-1.32%
15,CCn1c(C(=O)O)c(CC(=O)NC2CCCCCC2)c2ccccc21,9.57%
16,CSCc1c(C(=O)N2CCCc3ccccc32)oc2ccccc12,4.47%
17,O=C(COc1ccc2c(c1)OCO2)Nc1nccs1,17%
18,Cc1c(NC(=O)C(C)OC(=O)c2cccnc2)c(=O)n(-c2ccccc2)n1C (centres unmarked),12.3%
